Assay results published in article PMC4336329 (PLoS ONE, 2015).
Out of some 310,000 compounds screened, about 2,200 (0.71%) showed an effect of 50% or more. The effect is printed as a negative number. This is one part of the list.

Target: human ether-à-go-go-related gene (hERG) potassium channel (human, UniProt Q12809)
Assay: primary screen, population patch clamp on CHO cells stably expressing hERG

Chain of human ether-à-go-go-related gene (hERG) potassium channel (Q12809 whole entry, looked up): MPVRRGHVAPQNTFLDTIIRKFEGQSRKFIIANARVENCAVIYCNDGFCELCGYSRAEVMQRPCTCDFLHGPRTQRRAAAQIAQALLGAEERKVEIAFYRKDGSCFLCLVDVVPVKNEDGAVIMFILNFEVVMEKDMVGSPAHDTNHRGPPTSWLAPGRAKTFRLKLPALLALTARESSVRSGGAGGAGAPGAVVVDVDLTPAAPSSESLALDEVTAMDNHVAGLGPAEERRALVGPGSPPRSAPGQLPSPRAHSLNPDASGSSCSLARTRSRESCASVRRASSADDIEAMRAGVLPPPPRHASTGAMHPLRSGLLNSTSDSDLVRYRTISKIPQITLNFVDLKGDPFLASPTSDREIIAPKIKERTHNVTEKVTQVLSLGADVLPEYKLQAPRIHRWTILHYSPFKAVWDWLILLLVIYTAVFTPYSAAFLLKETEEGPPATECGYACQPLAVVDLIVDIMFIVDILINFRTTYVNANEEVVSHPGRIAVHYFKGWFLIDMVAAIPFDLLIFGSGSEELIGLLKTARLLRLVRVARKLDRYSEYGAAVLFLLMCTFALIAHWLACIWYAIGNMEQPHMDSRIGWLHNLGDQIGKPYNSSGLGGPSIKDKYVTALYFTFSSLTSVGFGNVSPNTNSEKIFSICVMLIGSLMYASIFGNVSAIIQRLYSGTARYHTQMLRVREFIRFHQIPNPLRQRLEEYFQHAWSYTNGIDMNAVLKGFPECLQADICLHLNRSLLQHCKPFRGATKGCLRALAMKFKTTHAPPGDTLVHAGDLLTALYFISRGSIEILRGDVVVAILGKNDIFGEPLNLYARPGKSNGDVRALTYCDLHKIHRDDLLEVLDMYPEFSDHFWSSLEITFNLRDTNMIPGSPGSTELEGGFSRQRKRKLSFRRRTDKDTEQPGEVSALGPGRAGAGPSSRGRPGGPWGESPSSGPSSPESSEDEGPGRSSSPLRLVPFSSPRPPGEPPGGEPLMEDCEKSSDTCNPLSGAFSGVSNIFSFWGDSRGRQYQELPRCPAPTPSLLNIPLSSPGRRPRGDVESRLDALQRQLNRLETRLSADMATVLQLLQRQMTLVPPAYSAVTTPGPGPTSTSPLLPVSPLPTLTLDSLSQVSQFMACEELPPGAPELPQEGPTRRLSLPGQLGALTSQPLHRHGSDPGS

| SMILES | hERG current change (%, negative = inhibition) at 1uM [%] |
| --- | --- |
| Cc1c(Cl)cccc1NC(=O)Cc1cccs1 | 12.8 |
| Cc1ccc(-n2ncc(C(=O)Nc3cc(Cl)ccc3Cl)c2C2CCNCC2)cc1.Cl | -27.6 |
| Cc1ccc(-c2nc3[nH]c(=O)cc(NC(=O)c4cccs4)n3n2)cc1 | 3.92 |
| CCCCNc1cc(C(=O)O)cc(S(N)(=O)=O)c1Oc1ccccc1 | 4.77 |
| CCOC(=O)Cn1nc(/C=C/c2ccc(C)cc2)ccc1=O | 11.5 |
| CC(C)/C=C/CN1CCN(CCCc2ccccc2)C(CCO)C1 (centres unmarked) | -35.7 |
| O=C(c1ccco1)N1CCCN(Cc2cn[nH]c2-c2ccc(-c3ccccc3)cc2)CC1 | -7.7 |
| CC(C)(C)NC(=O)C(c1ccc(F)cc1)N(C(=O)CCC(=O)Nc1ccccn1)C1CCCC1 (centres unmarked) | 4.59 |
| CCCCn1nc(NC(=O)CCC)c2cc3cc(OC)ccc3nc21 | 13.4 |
| Cc1ccc(C)c(OCC(=O)Nc2c(C)n(C)n(-c3ccccc3)c2=O)c1 | 12.2 |
| Cc1ccc(C(=O)N2CCCC(N3CCN(c4ccccc4C)CC3)C2)c(=O)[nH]1 (centres unmarked) | 10.5 |
| O=C(C1=C(O)C(=O)N(Cc2ccco2)C1c1cccc(O)c1)c1ccco1 (centres unmarked) | 14 |
| COc1cc(C(=O)NCCN2C(=O)S/C(=C\c3ccc(F)cc3)C2=O)ccc1OCC(=O)N1CCOCC1 | 12.5 |
| Cc1c(C(c2cccc(Br)c2)c2c(C)n(C)n(-c3ccccc3)c2=O)c(=O)n(-c2ccccc2)n1C.Cl | 10.6 |
| Cc1ccc(S(=O)(=O)N/N=C/c2ccc(OS(=O)(=O)c3ccc(C)c([N+](=O)[O-])c3)cc2)cc1 | 8.08 |
| CC(NC(=O)c1cccs1)c1ccc(Cl)cc1 (centres unmarked) | -0.472 |
| O=C(CCNc1ccc(F)c(Cl)c1)c1ccco1 | 8.86 |
| NS(=O)(=O)c1ccc(CNC(=O)C(Cc2ccccc2)NS(=O)(=O)c2ccccc2F)cc1 (centres unmarked) | 14.5 |
| O=C(NC1CCCCC1)[C@@H]1CC=C[C@@H]2CCN(C3CCCCC3)C(=O)[C@@H]21 | 11.3 |
| COc1ccc2nc(SCC(=O)N3CCCCC3)c(C#N)cc2c1 | 3.59 |
| COc1ccccc1C(=O)N1CCN(c2ccccn2)CC1 | -17.2 |
| Cc1ccc(N(C(=O)c2ccc(S(=O)(=O)N3CCOCC3)cc2)C2C=CS(=O)(=O)C2)cc1 (centres unmarked) | -3.04 |
| CCOC(=O)c1c(-c2ccccc2)csc1NC(=O)CSc1nncs1 | 4.2 |

| SMILES | hERG current change (%, negative = inhibition) at 1uM [%] |
| --- | --- |
| CCSc1nnc(NS(=O)(=O)c2ccc(OC)cc2)s1 | 4.13 |
| FC(F)(F)c1cc(Cl)c2nnc(-c3cccnc3)n2c1 | 14.5 |
| O=C(Cc1cccs1)Nc1cccc(-c2ccc3nncn3n2)c1 | 0.391 |
| O=S(=O)(NC1c2cccc3cccc(c23)C1N1CCNCC1)c1ccccc1 (centres unmarked) | 8.75 |
| COC(=O)c1ccccc1NC(=O)COc1ccccc1[N+](=O)[O-] | 0.818 |
| COCCNC(=O)c1cc2c(=O)n3cccc(C)c3nc2n1C | 22.6 |
| COc1cc(CNc2ccc3c(c2)CCC3)cc(OC)c1O | 10.2 |
| Nn1cnc2c([nH]c3ccccc32)c1=O | -3.75 |
| COC(=O)c1c(F)c(F)c(NCCO)c(F)c1F | -4.7 |
| CCOC(=O)N1CCC(NC(=O)C2=CCN(S(=O)(=O)c3ccc(OC)cc3)CC2)CC1 | -3.7 |
| CCOC(=O)c1ccc(N2C(=O)C3C(C2=O)C(C(=O)c2ccc(Cl)cc2)N2CCCC32)cc1 (centres unmarked) | 15.5 |
| COc1ccc(NS(=O)(=O)c2cc(NC(=O)c3cccnc3Cl)ccc2N2CCCC2)cc1 | 10.2 |
| Cc1ccc(NC(=O)c2cc(-c3ccc4c(c3)OCO4)on2)cc1 | 15.6 |
| CC(C)NC1CS(=O)(=O)CC1O (centres unmarked) | 3.4 |
| CCOc1ccc(-c2c(C(=O)N/N=C/C3CCCCC3)nnn2-c2nonc2N)cc1 | 12.5 |
| CCN(CC)S(=O)(=O)c1ccc(C(=O)N2CCN=C2SC)cc1 | 15.8 |
| O=C(NC(=S)N1CCc2ccccc21)c1ccccc1Br | 10.7 |
| CN(C)S(=O)(=O)c1ccc(N2CCCC2)c(C(=O)OCC(=O)NC2CCCCC2)c1 | 3.05 |
| COc1ccc(NC(=O)c2cnc3sccn3c2=O)cc1 | 6.9 |
| Cc1ccc(N(CC(=O)N2CCCCCC2)S(=O)(=O)c2ccccc2)cc1 | 2.46 |
| O=C(CN1C(=O)C2(OCCO2)c2ccccc21)c1ccc(F)cc1 | 4.79 |
| Cc1ccc(S(=O)(=O)N2CCN(C)CC2)cc1C | 10 |
| COc1ccc2c(c1)-c1c(sn(-c3ccc(OC)c(OC)c3)c1=S)C(C)(C)N2 | 10.9 |

| SMILES | hERG current change (%, negative = inhibition) at 1uM [%] |
| --- | --- |
| O=C(NCC1CCCN(C(=O)c2cccc(C(F)(F)F)c2)C1)c1ccc(F)cc1 (centres unmarked) | 27.7 |
| O=C(Cc1csc(NC(=O)c2ccc(F)cc2)n1)NO | 9.93 |
| COc1ccc(CNC(=O)C(C)n2nc(C)n3c(cc4occc43)c2=O)cc1 (centres unmarked) | 8.35 |
| CCN(CC)c1ccc(S(=O)(=O)N2CCCCC2)cc1NC(=O)C1=COCCO1 | 8.48 |
| N/C(Cn1cncn1)=N\NC(=O)C(=O)Nc1ccccc1 | 20.9 |
| CCOC(=O)C1CCN(CC(=O)c2c(C)n(C)c3ccc(OC)cc23)CC1 | -10.1 |
| O=C(OC1CCCCC1)c1cc2ccccc2oc1=O | 1.7 |
| O=C1CC(c2nc3ccccc3[nH]2)CN1c1ccccc1 (centres unmarked) | -0.133 |
| CCN(CC)S(=O)(=O)c1ccc(N2CCCC2)c(NC(=O)C2CCCCC2)c1 | 6.9 |
| CC(C)(C)n1nnnc1C(c1cccs1)N1CCCC2(CCCCC2)C1 (centres unmarked) | 7.74 |
| O=C(O)c1ccc2c(c1)CCC2 | 5.09 |
| COc1ccc(C2c3ccc4ccccc4c3Oc3ncn(Cc4ccco4)c(=N)c32)cc1OC (centres unmarked) | 3.49 |
| CCN(CC(=O)NC(C)C)Cc1nc2sc3c(c2c(=O)[nH]1)CCC3 | 7.51 |
| CN(NC(=O)CN1C(=O)c2ccccc2C1=O)C1=NS(=O)(=O)c2ccccc21 | 20.7 |
| Cc1ccc(S(=O)(=O)N2CCN(C(=O)c3cc4c(s3)CCCC4)CC2)c(C)c1 | 8.36 |
| Cc1ccc(NC(=O)CNC(=O)c2ccc(Oc3ccccc3)cc2)nc1 | 11.9 |
| O=C(CCCOc1ccccc1)OCn1nnc2ccccc2c1=O | 0.966 |
| COc1cc(C(C)=O)ccc1OCC(=O)Nc1ccc(Cl)c(S(=O)(=O)N2CCOCC2)c1 | -0.129 |
| CCOC(=O)CCCn1ccc2cc(S(=O)(=O)N3CCCC3)ccc21 | 14.6 |
| C=CC[n+]1ccn(-c2nc3ccccc3nc2[N-]S(=O)(=O)c2cccs2)c1 | 12.5 |
| O=C(O)CN(Cc1ccco1)S(=O)(=O)c1ccccc1 | 5.89 |
| CCOC(=O)N1CCN(c2ccc(C(F)(F)F)cn2)CC1 | 7.35 |
| CCOC(=O)c1ccccc1NC(=O)CN1C(=O)NC(C)(CCc2ccccc2)C1=O (centres unmarked) | -7.03 |

| SMILES | hERG current change (%, negative = inhibition) at 1uM [%] |
| --- | --- |
| CCC(C)[C@H](NC(=O)C1CC(=O)N(c2ccc3c(c2)OCO3)C1)C(=O)NC1CCCCC1 (some centres unmarked) | 29.5 |
| CCN(CC)C(=O)CSc1nc2[nH]ncc2c(=O)[nH]1 | -18.9 |
| CO/N=C/c1cccn1-c1nccc(OC)c1C#N | 13.3 |
| O=C(Nc1cccnc1)c1ccc([N+](=O)[O-])s1 | -1.39 |
| O=C(Nc1cccnc1)c1ccc(Cl)c(S(=O)(=O)N2CCCCCC2)c1 | 6.4 |
| COc1cc(C(=O)NCC2CCCO2)cc(OC)c1OC (centres unmarked) | 15 |
| NC(=O)CN(C/C=C/c1ccccc1)C/C=C/c1ccccc1 | 23.3 |
| O=C(Nc1csc(Cl)c1)c1ccccc1 | 4.52 |
| COc1cc(C(=O)Sc2ccc(Cl)cc2)cc(OC)c1OC | 14 |
| COc1ccc(-c2ccnc(-c3ccc(O)cc3)n2)cc1 | 8.12 |
| N#CC1CC(c2ccc([N+](=O)[O-])cc2)=NN1c1ccc([N+](=O)[O-])cc1 (centres unmarked) | 5.01 |
| COC(=O)Oc1ccc(/C=C/C(=O)OC(C)C)cc1OC(=O)OC | 6.62 |
| Cc1cccc(-n2nc3c([n+]2[O-])CCc2nonc2-3)c1C | 13.8 |
| CNC(=S)SCCOc1ccc(C)cc1 | 16 |
| CN(CC(CC(=O)Nc1nncs1)c1ccccc1)S(=O)(=O)c1ccc(Br)cc1 (centres unmarked) | -32.6 |
| CC(OC(=O)COc1ccccc1Cc1ccccc1)C(=O)N(C)c1ccccc1 (centres unmarked) | 8.06 |
| Fc1ccc(CNC2CCN(Cc3ccccc3)CC2)cc1 | -9.44 |
| CCCC(=O)N(Cc1cc2cc(C)ccc2[nH]c1=O)c1ccccc1OC | 6.79 |
| CCN(CC)c1ccc(C2C3CCCCC3(O)CCN2C(=O)c2cccs2)cc1 (centres unmarked) | 6.98 |
| Cc1nnsc1SCCNC(=O)c1ccc(F)cc1 | 7.97 |
